Among the data in PubChem BioAssay (NCATS) are IC50 and AC50 values, retold here.

Experiment [1] concerns the target Nicotinamide N-methyltransferase (Homo sapiens) (UniProt P40261). Put plainly: Confirmatory Screen for Target Class Profiling of Small Molecule Inhibitors of Methyltransferases (AID 1745852).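 Also: inhibitor potency for blocking SAH production.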 The conditions noted are these: MTase-Glo luminescence, SAH detection, recombinant enzyme; measured here: NNMT inhibition potency.
Experiment [2] can be described thus: S16 Schwann cell PMP22 intronic element beta-lactamase assay (AID 624044). Also: nearly all actives have a fitted effect of over 15% in size. The note with it: S16 rat Schwann cells, PMP22 element beta-lactamase FRET, 24 h. In outline: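 Beta-lactamase reporter under a PMP22 intronic regulatory element in stable S16 rat Schwann cells; 24 h compound exposure. 460 nm blue signal normalized between DMSO (0%) and potassium clavulanate, with 535 nm FRET tracking viability; curves classed by r2 and response.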

In experiment [3] the target is Histamine N-methyltransferase (Homo sapiens) (UniProt P50135). Put plainly: Confirmatory Screen for Target Class Profiling of Small Molecule Inhibitors of Methyltransferases (AID 1745852).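 Also: inhibitor potency for blocking SAH production.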 The conditions noted are these: MTase-Glo luminescence, SAH detection, recombinant enzyme; measured here: HNMT inhibition potency.

The list shows a part of the results. These are further read-outs of the screen, such as a control signal, another cell line or another target. No call is given for them. Compounds called inactive in the main read-out are mostly missing here. Potencies come from curve fits of mixed quality, noted in brackets.
Tags tell the direction and shape of the fitted curve.

Sequence of UniProt P40261 (P40261 whole entry, looked up): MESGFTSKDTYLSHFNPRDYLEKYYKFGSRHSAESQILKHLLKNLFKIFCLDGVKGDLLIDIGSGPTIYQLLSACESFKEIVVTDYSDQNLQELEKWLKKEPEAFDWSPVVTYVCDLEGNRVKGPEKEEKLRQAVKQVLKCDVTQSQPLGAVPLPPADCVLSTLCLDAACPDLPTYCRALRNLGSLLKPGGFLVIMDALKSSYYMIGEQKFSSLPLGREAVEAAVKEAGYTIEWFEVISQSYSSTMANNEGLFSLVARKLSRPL
Sequence of UniProt P50135 (P50135 whole entry, looked up): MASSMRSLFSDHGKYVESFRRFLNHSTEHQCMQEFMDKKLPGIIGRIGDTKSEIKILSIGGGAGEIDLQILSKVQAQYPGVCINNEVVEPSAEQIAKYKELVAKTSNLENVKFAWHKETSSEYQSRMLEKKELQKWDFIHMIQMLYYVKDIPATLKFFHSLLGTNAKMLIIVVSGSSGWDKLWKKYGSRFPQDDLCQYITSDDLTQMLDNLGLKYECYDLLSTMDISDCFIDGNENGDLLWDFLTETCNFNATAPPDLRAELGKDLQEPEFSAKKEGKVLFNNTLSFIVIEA

Consider `Cn1c(=O)c2ccnn2c2ccc(C(=O)NCC3CCN(Cc4ccccc4F)CC3)cc21`, for which the 50% inhibitory concentration (IC50) in experiment [1] is 24.1 µM [falling, partial curve].

Consider `NC(N)=NC(=O)c1cnn(-c2cccc3ncccc23)c1C1CC1`, for which, in experiment [1], the IC50 is 19.2 µM [falling, partial curve].

With `CC1(C(=O)NC2CCCCC2)Cn2c(c(-n3cccc3)c3ccccc32)C(=O)N1Cc1ccccn1` (stereo unspecified), the IC50 in experiment [1] is 15.2 µM [falling, partial curve].

As to `COc1cc(C(=O)O)ccc1NC(=O)[C@@H]1N[C@@H](CC(C)(C)C)[C@](C#N)(c2ccc(Cl)cc2F)[C@H]1c1cccc(Cl)c1F`, in experiment [1], the 50% inhibitory concentration (IC50) was 30.4 µM [falling, single point].

On to `Cc1ccc2nc(N)[nH]c(=O)c2c1Sc1ccncc1`, for which the half-maximal activity concentration (AC50) in experiment [2] (measured here: 460 nm blue channel) was 4.46 µM [falling, full curve, poor fit]; in experiment [2] (measured here: 530 nm viability channel) it was 4.47 µM [falling, full curve, poor fit]. The IC50 in experiment [3] was 19.2 µM [falling, partial curve].

Consider `CCCn1c(=O)c2ccccc2n2c(=O)n(CC(=O)c3cc(C)ccc3C)nc12`, for which the IC50 in experiment [1] was 9.61 µM [falling, partial curve].

With `COC1CCN(c2cc(-c3ccsc3)nc3c(C)noc23)CC1`, the IC50 in experiment [1] was 35 µM [falling, partial curve, poor fit].

In the case of `O=C(O)c1cc(O)c2cccc(O)c2c1O[C@@H]1O[C@H](CO)[C@@H](O)[C@H](O)[C@H]1O`, in experiment [1], the IC50 was 14.9 µM [falling, partial curve].

Take `CC(C)Cn1c(=O)c2ccccc2n2c(CCC(=O)N3CCN(Cc4ccccc4)CC3)nnc12`: in experiment [1], the half-inhibitory concentration (IC50) is 21.5 µM [falling, partial curve].
